Measurements reported in patent US20250333507A1 (SHANGHAI CELGEN BIO PHARMACEUTICAL, published 2025).
Values joined by “and” are separate entries in the source; they are usually repeats but may differ in a detail not shown here. Equal entries are not always repeated.

What was measured:
[1] = biological target: T1, mouse IL2R on CTLL-2 cells (mouse, UniProt P01590 22-268); assay: cell-based or functional assay
T1 sequence (looked up): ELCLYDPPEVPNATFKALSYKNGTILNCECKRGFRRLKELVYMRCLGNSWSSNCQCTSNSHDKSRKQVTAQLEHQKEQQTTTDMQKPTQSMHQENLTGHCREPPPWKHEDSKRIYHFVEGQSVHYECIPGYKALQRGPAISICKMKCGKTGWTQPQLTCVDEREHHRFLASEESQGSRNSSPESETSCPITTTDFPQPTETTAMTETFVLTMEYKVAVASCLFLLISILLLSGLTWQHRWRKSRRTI

[2] = biological target: T2, recombinant IL2Rα subunit (Sinobio) (UniProt P01589 22-213); assay: BLI, recombinant IL2Rα subunit
T2 sequence (looked up): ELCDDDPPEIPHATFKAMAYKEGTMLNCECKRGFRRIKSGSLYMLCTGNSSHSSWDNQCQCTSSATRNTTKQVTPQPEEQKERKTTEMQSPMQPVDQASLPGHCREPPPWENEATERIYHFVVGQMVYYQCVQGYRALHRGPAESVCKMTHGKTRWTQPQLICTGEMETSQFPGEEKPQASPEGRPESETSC

[3] = biological target: T3, IL2Rβγ (dimer) on 293F cells (human, UniProt P14784 27-551; P31785 23-369); assay: flow cytometry on 293F cells expressing IL2Rβγ
T3 construct: whole, on cells; also called IL2Rβγ subunit
T3 sequence (looked up) 1: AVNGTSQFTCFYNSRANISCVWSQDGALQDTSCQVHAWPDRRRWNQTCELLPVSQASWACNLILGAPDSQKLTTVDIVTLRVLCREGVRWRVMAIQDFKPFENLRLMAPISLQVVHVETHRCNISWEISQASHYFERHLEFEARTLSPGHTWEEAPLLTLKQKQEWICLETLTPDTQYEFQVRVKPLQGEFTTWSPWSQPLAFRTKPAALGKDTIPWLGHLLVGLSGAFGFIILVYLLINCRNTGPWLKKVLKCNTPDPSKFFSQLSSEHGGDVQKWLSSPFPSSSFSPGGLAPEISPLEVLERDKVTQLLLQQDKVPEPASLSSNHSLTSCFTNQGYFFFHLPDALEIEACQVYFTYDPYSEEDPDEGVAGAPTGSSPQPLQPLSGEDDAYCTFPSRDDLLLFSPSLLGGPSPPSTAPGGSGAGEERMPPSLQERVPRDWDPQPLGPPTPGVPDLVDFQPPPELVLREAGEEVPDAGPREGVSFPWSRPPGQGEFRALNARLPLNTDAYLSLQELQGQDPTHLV
T3 sequence (looked up) 2: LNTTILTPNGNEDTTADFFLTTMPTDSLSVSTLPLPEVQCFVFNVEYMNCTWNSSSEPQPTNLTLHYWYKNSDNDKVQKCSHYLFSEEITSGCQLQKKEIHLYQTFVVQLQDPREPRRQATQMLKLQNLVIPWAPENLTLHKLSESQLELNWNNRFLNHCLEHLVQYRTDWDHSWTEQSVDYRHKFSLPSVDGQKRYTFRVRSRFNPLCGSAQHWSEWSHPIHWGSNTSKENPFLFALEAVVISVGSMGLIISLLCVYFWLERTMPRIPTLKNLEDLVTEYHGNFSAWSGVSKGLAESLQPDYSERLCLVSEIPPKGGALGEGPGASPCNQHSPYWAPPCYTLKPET
From the text: First, human IL2Rα, IL2Rβ, and IL2Rγ expression plasmids (Sinobio) were co-transfected into 293F cells to transiently express the following IL2R complexes: IL2Rαβγ (trimer), IL2Rαγ (dimer), and IL2Rβγ (dimer). The expression of the respective IL2R subunits on the cell membrane was detected using antibodies against IL2Rα, IL2Rβ, and IL2Rγ.
Then, the binding activity of KD5201F, KD5201E, and control protein-1 to the 293F cells expressing the two types of IL2R complexes (αγ and βγ) was detected using flow cytometry.

[4] = biological target: T4, full-length human TIGIT on the cell membrane (human, UniProt Q495A1 22-244); assay: flow cytometry on Jurkat cells expressing human TIGIT
T4 construct: whole, on cells; the cell is named under assay or readout; also called CHO-K-TIGIT; CHO-TIGIT
T4 sequence (looked up): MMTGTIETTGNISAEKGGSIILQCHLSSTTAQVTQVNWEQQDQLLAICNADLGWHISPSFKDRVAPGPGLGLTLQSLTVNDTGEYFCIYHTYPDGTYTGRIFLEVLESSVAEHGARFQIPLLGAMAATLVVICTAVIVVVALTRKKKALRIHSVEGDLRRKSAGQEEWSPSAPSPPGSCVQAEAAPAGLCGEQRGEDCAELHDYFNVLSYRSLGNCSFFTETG
Procedure: The binding activity of the anti-TIGIT antibody-IL2 fusion proteins to TIGIT on the cell membrane was tested using flow cytometry. A Jurkat cell line stably expressing human TIGIT was first established. The full-length human TIGIT gene (Sinobio) was amplified by PCR and cloned into the mammalian cell expression vector pcDNA3.1 (Invitrogen), using Not I and Xba I as cloning enzymes. The TIGIT expression plasmid was transfected into Jurkat cells to construct a stable Jurkat cell line expressing TIGIT (TIGIT-Jurkat).
The flow cytometry study method for the binding of TIGIT antibody-IL2 fusion proteins to cell membrane-bound TIGIT is summarized as follows: FACS buffer (1×PBS+0.5% BSA solution) was prepared. The required number of TIGIT-Jurkat cells, about 1×10⁵ to 5×10⁵ cells per sample, was taken and incubated with TIGIT antibody-IL2 fusion protein diluted to a certain ratio in FACS buffer, approximately 100 μL, at 4° C. for 30 minutes. After washing the cells once with FACS buffer, they were resuspended in FITC-conjugated anti-human IgG (Abcam: 6854) diluted in FACS buffer and incubated at 4° C. for 30 minutes. Finally, after washing the cells with FACS buffer, they were resuspended in 200 μL of FACS buffer for analysis. The parent TIGIT antibody P03479 was used as a control.
The results were consistent with those obtained by binding recombinant TIGIT in vitro (Example 6).

B1: KD5201F, HC-IL2wt/LC(ART-Ig) anti-TIGIT antibody-IL2 fusion protein (other)
heavy 1: EVQVVESGGGLVKPGGSLRLSCAASGFTFSTYAMSWVRQAPGKGLEWVAEISSGGSHTFYADTVKGRFTISRDNAKNTLYLQMNSLRAEDTAVYYCARKTLDYYALDYWGQGTTVTVSSASTKGPSVFPLAPSSKSTSGGTAALGCLVKDYFPEPVTVSWNSGALTSGVHTFPAVLQSSGLYSLSSVVTVPSSSLGTQTYICNVNHKPSNTKVDKKV[sequence of human IgG1 Fc with D356K H435R (EU numbers) not given]GGGGSGGGGSGGGGS[sequence of about 150 residues not given]
heavy 2: EVQVVESGGGLVKPGGSLRLSCAASGFTFSTYAMSWVRQAPGKGLEWVAEISSGGSHTFYADTVKGRFTISRDNAKNTLYLQMNSLRAEDTAVYYCARKTLDYYALDYWGQGTTVTVSSASTKGPSVFPLAPSSKSTSGGTAALGCLVKDYFPEPVTVSWNSGALTSGVHTFPAVLQSSGLYSLSSVVTVPSSSLGTQTYICNVNHKPSNTKVDKKV[sequence of human IgG1 Fc with K439E (EU numbers) not given]
light: DVQITQSPSYLSASVGDRVTINCRASKSISKYLAWYQQKPGKAPKLLIYSGSRLQSGIPSRFSGSGYGTDFTLTISSLQPEDFATYYCQQHNEYPWTFGGGTKLEIKRTVAAPSVFIFPPSDEQLKSGTASVVCLLNNFYPREAKVQWKVDNALQSGNSQESVTEQDSKDSTYSLSSTLTLSKADYEKHKVYACEVTHQGLSSPVTKSFNRGEC
notes: Heterodimeric […] antibody with wild-type IL2 on the C-terminus of one heavy chain; also called HC1-IL2wt/LC1(ART-Ig); HC1-IL2 wt/LC1 (ART-Ig)
EC50 of stimulating CTLL-2 cell growth (CCK-8) [1]: 0.0111 µg/mL and 0.0136 µg/mL
Kd [2]: ~3 nM
binding result [3]: binds
EC50 [4]: 0.0628 µg/mL
